Experimental data as given in PubChem BioAssay AID1508623 (National Center for Advancing Translational Sciences (NCATS), 2021).
Out of some 48,000 compounds screened, about 450 (0.94%) were called active. About 19% were inconclusive and are not listed. Calls follow the shape of the dose curve; as a rule, active = well fitted inhibition curve with a large enough effect; inconclusive = small, poorly fitted or top-dose-only effect; inactive = no such curve, though single readings can be large or run the other way. This is one part of the list.

Experiment: Primary qHTS for Identification of Small Molecule Inhibitors of Huntingtin Promoter Activity; also: nearly all actives have a fitted effect of over 50% in size
Settings: HEK293 HTT promoter firefly luciferase reporter (activity 0% = vehicle and -100% = no light), 24 h; series mostly up to 57.5 µM; activity change, negative = inhibition: at the top concentration
How it was run: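 Luminescence was read after Dual-Glo reagent and a 10 min room-temperature incubation. Values were normalized to vehicle (0% activity) and zero RLU (-100% activity). Reporter HEK293 cells had been exposed to compounds (up to 57.5 uM final) for 24 h.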

Activity change, negative = inhibition, inactive:
CCOC(=O)c1c(S(=O)(=O)N2CCCC(C(=O)N3CCN(c4cc(C)ccc4C)CC3)C2)c(C)n(C)c1C (stereo unspecified) -12.6%
CCN(CC)C(=O)c1ccc(O)c(OC)c1 -1.53%
Cc1nn2c(C)c(C(=O)N3CCN(c4ccc(Cl)cc4)CC3)cnc2c1-c1ccc(F)cc1 -11.8%
O=S(=O)(c1ccc(-c2cnc(C3CC3)o2)cc1)N1CCN(c2ccccc2F)CC1 -21.6%
COc1cc2c(cc1OC)n(CC(=O)c1ccc(C)cc1C)c(=O)n1nc(CCn3nc(C)cc3C)nc21 -8.25%
COc1ccc(NC(=O)c2cc(-c3ccccc3F)no2)cc1 1.18%
Cc1cccc(Nc2sc(C(=O)c3ccc(Cl)cc3)c(N)c2C(N)=O)c1 -16.7%
COc1cccc(CNC(=O)Cn2nc(C)c3sc4ccccc4c3c2=O)c1OC -6.94%
Cc1cccc(C)c1OCC(=O)N(Cc1ccco1)Cc1ccco1 -12.7%
C=Cc1ccc(Cn2c(C)c(CNCCc3ccc(OCC)cc3)c(C(=O)O)c2C)cc1 0%
CCn1cc(C(=O)N2CCN(c3cccc(Cl)c3)CC2)c(=O)c2cc(S(=O)(=O)N3CCC(C)CC3)ccc21 -15.4%
Cc1ccc2c(=O)cc(CSc3ncn[nH]3)[nH]c2c1C -2.37%
CCOC(=O)c1c(C)[nH]c(C)c1S(=O)(=O)N1CCC(C(=O)N2CCN(c3ccc(F)cc3)CC2)CC1 -21.7%
Cc1ccc2nc(NC(=O)c3ccc(S(=O)(=O)N4CCC(C)CC4)cc3)sc2c1 -0.966%
Cc1ccccc1CN1C(=O)c2ccccc2Sc2ccc(C(=O)NCCc3ccccc3)cc21 -29.4%
Cc1ccc(N2CC(NC(=O)c3cccs3)CC2=O)cc1 (stereo unspecified) -17.6%
O=C(CCCN1C(=O)c2cccnc2Oc2ccc(Cl)cc21)NCc1ccc(F)cc1 -6.48%
CN1CCN(CCNC(=O)c2cnn(-c3ccc(F)cc3)c2C2CCN(C(=O)OC(C)(C)C)CC2)CC1 -3.82%
O=C(Nc1ccccc1)Nc1nnc(SCC(=O)N2CCCCC2)s1 -21.3%
Cc1ccc(N2C(=O)CSC23C(=O)N(CC(=O)NCc2ccccc2)c2ccccc23)cc1 (stereo unspecified) -25.4%
CCOc1ccc(-n2cc(-c3ccccc3)c3c(NC4CCCC4)ncnc32)cc1 -13.5%
O=C(CN1C(=O)C2(SCC(=O)N2c2ccc(F)cc2)c2ccccc21)NC1CCCCC1 (stereo unspecified) -14.4%
Cc1ccc2c(c1)C(=O)OC(C(=O)Nc1ccccc1C(=O)O)C2 (stereo unspecified) 16.6%
Cc1cc2oc(C(=O)N(Cc3ccc(N(C)C)cc3)Cc3ccco3)c(C)c2cc1Cl -20.2%
Cc1ccccc1Nc1nc(N)c(C(=O)c2ccccc2Cl)s1 -27.8%
Oc1cc2c(cc1O)C1c3ccc(O)c(O)c3OCC1(O)C2 (stereo unspecified) -5.99%
CCOc1ccc(NC(=O)c2cnc3sc(N4CCOCC4)nn3c2=O)cc1 0.849%
COc1cccc(N2CC(NC(=O)COc3ccccc3F)CC2=O)c1 (stereo unspecified) -21.3%
Cc1ccc(C)c(NC(=O)CSc2ccc3nc(-c4ccccc4)cn3n2)c1 8.08%
O=C(Nc1cccc(C(=O)OCc2cc(=O)n3nc(C4CC4)sc3n2)c1)c1cccc(Cl)c1 -13.1%
COc1ccc(Nc2oc(/C=C/c3ccccc3OC)nc2C#N)cc1 27.6%
COc1cc(C(=O)NCCc2sc(-c3cccc(F)c3)nc2C)cc(OC)c1OC -18.3%
O=C(Nc1ccccc1Br)c1cc(CN2CCCC2)on1 31.4%
COc1cc2c(cc1NC(=O)c1ccccc1C)n(C)c(=O)n2C 9.75%
CCc1ccc(CNC(=O)c2ccc(-c3nc(CSc4ccc(C)cc4)c(C)o3)cc2)cc1 -14.5%
O=C(CSc1oc(-c2ccc(F)cc2)nc1S(=O)(=O)c1ccccc1)NC1CCCCC1 -16.1%
CCSc1nnc(NC(=O)c2cc(=O)c3cc(C)ccc3o2)s1 3.68%
COc1cccc(CNC(=O)CCn2cnc3ccccc3c2=O)c1 -9.53%
CC(CCc1ccccc1)NC(=O)Cn1ncc2c3ccccc3n(Cc3ccccc3)c2c1=O (stereo unspecified) 3.44%
O=C(CCN1C(=O)c2ccccc2Sc2ncccc21)Nc1ccc(F)cc1 -5.73%
CCOC(=O)c1ccc(NC(=O)c2oc3c(c2C)-c2nn(Cc4ccccc4Cl)cc2CC3)cc1 -15.7%
CCOC(=O)c1cccc(NC(=O)CCS(=O)(=O)c2ccc3c(c2)CC(=O)N3C)c1 -7.55%
Cc1ccc(/C=C(\C#N)c2nc(-c3ccc(-c4ccccc4)cc3)cs2)cc1 12%
COC(=O)c1ccc(Cl)cc1NC(=O)NCCc1c(C)nn(C)c1C -0.375%
CC(C)c1ccc(NC(=O)Cn2c(=O)n(CC3CCC(C(=O)NCCc4ccccc4)CC3)c(=O)c3ccccc32)cc1 (stereo unspecified) 1.07%
Cc1ccc(-n2c(=O)c3cccnc3n2CC(=O)Nc2cc(C)cc(C)c2)cc1 -24.4%
COc1ccccc1CNC(=O)Cn1c(=O)nc(-c2ccccc2F)c2cc(Cl)ccc21 -3.71%
CC(C)(C)C1CCc2c(sc(NC(=O)Cn3nnc(-c4ccccc4Cl)n3)c2C#N)C1 (stereo unspecified) -1.39%
Cc1cccc(N2CCN(C(=O)CS(=O)(=O)c3cccc4nsnc34)CC2)c1C -6.74%
CCOC(=O)c1c(C)[nH]c(C)c1S(=O)(=O)N1CCC(C(=O)Nc2cc(C)ccn2)CC1 -4.61%
Cc1ccc(Cl)cc1N1CCN(C(=O)C2CCC(CNS(=O)(=O)c3cccs3)CC2)CC1 (stereo unspecified) 0%
Cc1ccc(CNc2ccc(-c3nc(-c4ccncc4)no3)cc2[N+](=O)[O-])cc1 -4.89%
Cc1ccc(-c2nc(S(=O)(=O)c3ccccc3)c(N3CCN(c4ccccc4)CC3)o2)cc1 -3.69%
Cc1ccc2nc(COc3ccccc3NC(=O)COc3ccc(F)cc3)cc(=O)n2c1 -4.55%
CCc1ccccc1NS(=O)(=O)c1ccc2[nH]cc(C(=O)N(CC(C)C)CC(C)C)c(=O)c2c1 -4.76%
CCc1ccccc1N(CC)C(=O)c1c(C)oc2ncn(C)c(=O)c12 0%
O=C(Nc1ccccc1C(=O)OCc1cc(=O)n2c3c(sc2n1)CCCC3)c1ccc(F)cc1 -19.5%
COc1ccc(NC(=O)C2CCN(S(=O)(=O)c3ccc4c(c3)CCCC(=O)N4)CC2)cc1OC -3.86%
Cc1cccc(C(C)C)c1NC(=O)Cn1c(=O)oc2cc(S(=O)(=O)N3CCCC3)ccc21 -42.5%
CCc1ccc2nc(N(CCN(CC)CC)C(=O)c3cccs3)sc2c1 12.9%
COc1cccc(C(=O)Nc2nc3nc(-c4ccccc4)cc(=O)n3[nH]2)c1 -12.4%
